# Measurements taken from the supplement of paper PMC10037445.
# Over roughly 2,900 compounds, “IRF Lucia reporter activity, fold change vs agonist alone” has its median near 0.9; the highest 2% begin near 2.8. This is one part of the list.
# How the values were obtained:
# RAW-Dual [1] = assay: IRF Lucia reporter activity, fold change vs agonist alone; cytotoxicity flag (confluency mask): not cytotoxic; higher = enhanced IRF activity
# How it was run: (§1)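 Supernatant from RAW-Dual macrophages was read after 20 hours for IRF by QuantiLuc luminescence and for NF-κB by QuantiBlue absorbance at 620 nm. The cells (50,000 cells/well in DMEM, 384-well plates, 37 °C, 5% CO2) had received 50 nL of library stock by pin tool and, 1 h later, a PRR agonist. Reporter activity is expressed relative to agonist-alone wells as fold change, and wells were flagged cytotoxic if IncuCyte confluency was under 70% of agonist controls in both mask sets.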
# RAW-Dual [2] = assay: IRF Lucia reporter activity, fold change vs agonist alone; higher = enhanced IRF activity; conditions: library stock concentration (final ~1000-fold dilution): 10 mM, agonist: MPLA (TLR4) […]
# How it was run: as §1
# RAW-Dual [3] = assay: IRF Lucia reporter activity, fold change vs agonist alone; cytotoxicity flag (confluency mask): cytotoxic (confluency <70% of control); higher = enhanced IRF activity
# How it was run: as §1
# [4] = agonist: 3'3'-cGAMP (STING) 10 ug/mL
# [5] = cytotoxicity flag (confluency mask): not cytotoxic
compound,measurement,setting,value
COc1cccc2cc(-c3nc(C4CCC(C(=O)O)CC4)n4ncnc(N)c34)[nH]c12 (configuration not stated) (library stock concentration (final ~1000-fold dilution): 10 mM),IRF Lucia reporter activity,RAW-Dual [1]; [4],0.354
same,IRF Lucia reporter activity,RAW-Dual [1]; agonist: LPS (TLR4) 0.1 ug/mL,0.855
COc1cccc2cc(-c3nc(C4CCC(C(=O)O)CC4)n4ncnc(N)c34)[nH]c12 (configuration not stated),IRF Lucia reporter activity,RAW-Dual [2]; [5],0.765
CCC(C(=O)O)c1ccc(N2Cc3ccccc3C2=O)cc1 (configuration not stated),IRF Lucia reporter activity,RAW-Dual [2]; [5],1.04
CCC(C(=O)O)c1ccc(N2Cc3ccccc3C2=O)cc1 (configuration not stated) (library stock concentration (final ~1000-fold dilution): 10 mM),IRF Lucia reporter activity,RAW-Dual [1]; [4],0.977
same,IRF Lucia reporter activity,RAW-Dual [1]; agonist: LPS (TLR4) 0.1 ug/mL,1.31
CC1OC(OC2C(CO)OC(OCC3OC(OC(=O)[C@]45CC[C@@H](C)[C@H](C)[C@H]4C4=CCC6[C@@]7(C)C[C@@H](O)[C@@H](O)[C@@](C)(CO)C7CC[C@@]6(C)[C@]4(C)CC5)C(O)C(O)C3O)C(O)C2O)C(O)C(O)C1O (some centres not stated) (library stock concentration (final ~1000-fold dilution): 10 mM),IRF Lucia reporter activity,RAW-Dual [1]; [4],0.357
same,IRF Lucia reporter activity,RAW-Dual [1]; agonist: LPS (TLR4) 0.1 ug/mL,0.657
Oc1ccc(-c2c(-c3ccccc3)nn3c(C(F)(F)F)cc(C(F)(F)F)nc23)cc1 (library stock concentration (final ~1000-fold dilution): 10 mM),IRF Lucia reporter activity,RAW-Dual [1]; [4],1.18
same,IRF Lucia reporter activity,RAW-Dual [1]; agonist: LPS (TLR4) 0.1 ug/mL,0.89
NC1CC1c1ccc(-c2cccc(O)c2)cc1 (configuration not stated) (library stock concentration (final ~1000-fold dilution): 10 mM),IRF Lucia reporter activity,RAW-Dual [1]; [4],0.33
same,IRF Lucia reporter activity,RAW-Dual [1]; agonist: LPS (TLR4) 0.1 ug/mL,1.1
NC1CC1c1ccc(-c2cccc(O)c2)cc1 (configuration not stated),IRF Lucia reporter activity,RAW-Dual [2]; [5],1.07
CS(=O)(=O)N1CCN(Cc2cc3nc(-c4cccc5[nH]ncc45)nc(N4CCOCC4)c3s2)CC1 (library stock concentration (final ~1000-fold dilution): 10 mM),IRF Lucia reporter activity,RAW-Dual [1]; [4],0.224
same,IRF Lucia reporter activity,RAW-Dual [1]; agonist: LPS (TLR4) 0.1 ug/mL,1.18
CS(=O)(=O)N1CCN(Cc2cc3nc(-c4cccc5[nH]ncc45)nc(N4CCOCC4)c3s2)CC1,IRF Lucia reporter activity,RAW-Dual [2]; [5],0.874
O=C(O)Cn1c2c(c3cc(F)ccc31)CN(C(=O)c1cccc3ccccc13)CC2 (library stock concentration (final ~1000-fold dilution): 10 mM),IRF Lucia reporter activity,RAW-Dual [1]; [4],0.969
same,IRF Lucia reporter activity,RAW-Dual [1]; agonist: LPS (TLR4) 0.1 ug/mL,0.879
O=C(O)Cn1c2c(c3cc(F)ccc31)CN(C(=O)c1cccc3ccccc13)CC2,IRF Lucia reporter activity,RAW-Dual [2]; [5],1.03
COc1ccccc1N1CCN(CCN2C(=O)CC3(CCCC3)CC2=O)CC1.Cl.Cl,IRF Lucia reporter activity,RAW-Dual [2]; [5],0.94
COc1ccccc1N1CCN(CCN2C(=O)CC3(CCCC3)CC2=O)CC1.Cl.Cl (library stock concentration (final ~1000-fold dilution): 10 mM),IRF Lucia reporter activity,RAW-Dual [1]; [4],1.06
same,IRF Lucia reporter activity,RAW-Dual [1]; agonist: LPS (TLR4) 0.1 ug/mL,1.01
Nc1nc(F)nc2c1ncn2C1OC(CO)C(O)C1O (configuration not stated),IRF Lucia reporter activity,RAW-Dual [2]; [5],0.733
Nc1nc(F)nc2c1ncn2C1OC(CO)C(O)C1O (configuration not stated) (library stock concentration (final ~1000-fold dilution): 10 mM),IRF Lucia reporter activity,RAW-Dual [1]; [4],1.01
same,IRF Lucia reporter activity,RAW-Dual [1]; agonist: LPS (TLR4) 0.1 ug/mL,0.922
COC(=O)C1=C(C)NC(C)=C(C(=O)OC2CCCN(Cc3ccccc3)C2)C1c1cccc([N+](=O)[O-])c1.Cl (configuration not stated),IRF Lucia reporter activity,RAW-Dual [2]; [5],1.23
COC(=O)C1=C(C)NC(C)=C(C(=O)OC2CCCN(Cc3ccccc3)C2)C1c1cccc([N+](=O)[O-])c1.Cl (configuration not stated) (library stock concentration (final ~1000-fold dilution): 10 mM),IRF Lucia reporter activity,RAW-Dual [1]; [4],0.184
same,IRF Lucia reporter activity,RAW-Dual [1]; agonist: LPS (TLR4) 0.1 ug/mL,1.61
CCOC(=O)NC1CCC2C(C1)CC1C(=O)OC(C)C1C2/C=C/c1ccc(-c2cccc(F)c2)cn1 (configuration not stated) (library stock concentration (final ~1000-fold dilution): 10 mM),IRF Lucia reporter activity,RAW-Dual [1]; [4],0.228
same,IRF Lucia reporter activity,RAW-Dual [1]; agonist: LPS (TLR4) 0.1 ug/mL,1.09
CC#CC(=O)Nc1ccc2ncnc(Nc3cccc(Br)c3)c2c1 (library stock concentration (final ~1000-fold dilution): 10 mM),IRF Lucia reporter activity,RAW-Dual [1]; [4],0.0133
same,IRF Lucia reporter activity,RAW-Dual [1]; agonist: LPS (TLR4) 0.1 ug/mL,0.704
CC#CC(=O)Nc1ccc2ncnc(Nc3cccc(Br)c3)c2c1,IRF Lucia reporter activity,RAW-Dual [2]; [5],0.361
CNC1CCC(c2ccc(Cl)c(Cl)c2)c2ccccc21.Cl (configuration not stated),IRF Lucia reporter activity,RAW-Dual [2]; cytotoxicity flag (confluency mask): cytotoxic (confluency <70% of control),1.98
CNC1CCC(c2ccc(Cl)c(Cl)c2)c2ccccc21.Cl (configuration not stated) (library stock concentration (final ~1000-fold dilution): 10 mM),IRF Lucia reporter activity,RAW-Dual [3]; [4],0.552
same,IRF Lucia reporter activity,RAW-Dual [3]; agonist: LPS (TLR4) 0.1 ug/mL,1.62
CCC(C(C)O)n1ncn(-c2ccc(N3CCN(c4ccc(OCC5COC(Cn6cncn6)(c6ccc(F)cc6F)C5)cc4)CC3)cc2)c1=O (configuration not stated) (library stock concentration (final ~1000-fold dilution): 10 mM),IRF Lucia reporter activity,RAW-Dual [1]; [4],0.112
same,IRF Lucia reporter activity,RAW-Dual [1]; agonist: LPS (TLR4) 0.1 ug/mL,1.7
CCC(C(C)O)n1ncn(-c2ccc(N3CCN(c4ccc(OCC5COC(Cn6cncn6)(c6ccc(F)cc6F)C5)cc4)CC3)cc2)c1=O (configuration not stated),IRF Lucia reporter activity,RAW-Dual [2]; [5],2.4
CCCCc1ncc(/C=C(\Cc2cccs2)C(=O)O)n1Cc1ccc(C(=O)O)cc1.CS(=O)(=O)O,IRF Lucia reporter activity,RAW-Dual [2]; [5],1.04
CCCCc1ncc(/C=C(\Cc2cccs2)C(=O)O)n1Cc1ccc(C(=O)O)cc1.CS(=O)(=O)O (library stock concentration (final ~1000-fold dilution): 10 mM),IRF Lucia reporter activity,RAW-Dual [1]; [4],0.954
same,IRF Lucia reporter activity,RAW-Dual [1]; agonist: LPS (TLR4) 0.1 ug/mL,1.27
